Experimental data taken from the RNAGym collection of RNA variant scans (doi:10.7554/elife.90254).
Read counts are not given, so values of variants with three or more changes are uncertain.

B1: LINE1-mini (parent)
chain: GGCAGAGCUCAACACAGCGUGGCAAAGUGGCUGUGGCUAGACUGCC

Variants of: B1
Test: self-cleavage, relative activity (ratio to wild type); higher = more cleavage; in vitro, sequencing; the parent is a self-cleaving ribozyme

Row | Variant | self-cleavage
1 | GGCAGCGCUCAACACAGCGUAGCAAUGUGGCUGUGGCUAGACUGCA [A6C G21A A26U C46A] | 1.4
2 | GGCAGCGCUCAACACAGCGUAGCAAAGUGGCUGGGGCUAGACUGCC [A6C G21A U34G] | 0.07
3 | GGCAGCUCUCAACACAGCGUGACAAAGUGGCUGUGGCUAGACUGGA [A6C G7U G22A C45G C46A] | 1.1
4 | GGCAGCGCUCAACACAGCGUGUCAAAGUGGCCGUGGCUAGACUGCC [A6C G22U U32C] | 0.02
5 | GGCAGCGCUCAACACAGCAUGGCAAAGUGGCUGUGGGUAGACUGCC [A6C G19A C37G] | 0.03
6 | GGCAGCGCUCAACACAGCGUGUCAAAGUGCCUGUGGCCAGACUGCC [A6C G22U G30C U38C] | 0.12
7 | GGCAGCUCUCAACACAGCGUGGCAAAGUGGCUGUGACUAGACUGCC [A6C G7U G36A] | 0.05
8 | GGCAGCGCUCAACACAGCCUGUCAAAGUGGCUGUGACUAGCCUGCC [A6C G19C G22U G36A A41C] | 0.03
9 | GGCAGCGCUCAACACAUGGUGGCAAAGUGGCUGUGGCUAGACUGCC [A6C G17U C18G] | 0.17
10 | GGCAGCGCUCAACACAGCGUAGCUUAGUGGCUGUGGCCAGAUUGCC [A6C G21A A24U A25U U38C C42U] | 0.11
11 | GGCAGCGCUCAACACAGCAUGGCAAAAUGGCUGUGGCUAGACUCCC [A6C G19A G27A G44C] | 0.18
12 | GGCAGCGCUCAACACAUCGUGGCAAAGUGGCUGUAGCUAGACUGCC [A6C G17U G35A] | 0.03
13 | GGCAGCGCUCAACACAGCUUGCCAAAGUGGCUGUGGCUAGACUGCC [A6C G19U G22C] | 0.27
14 | GGCAGCGCUCAACACAGCGUGGCAAAAUCGCUGGGGCUUGACUGCC [A6C G27A G29C U34G A39U] | 0.15
15 | GGCAGCGCUCAACACAUCGUGGCAAAGUGGCUGUGGCUAGAGUGCC [A6C G17U C42G] | 0.05
16 | GGCAGCGCUCAACACAGCGUCGAAAAGUGGCUGUGGCUAGCCUGCC [A6C G21C C23A A41C] | 0.04
17 | GGCAGCGCUCAACACACCGUGGCAAAGUGCCUGUGGCUAGACUGCC [A6C G17C G30C] | 0.05
18 | GGCAGCGCUCAACACAGCGUGGCAAAAUGGCGGCGACUAGACUGGC [A6C G27A U32G U34C G36A C45G] | 0.01
19 | GGCAGCGCUCAACACAGCCUGGCAAACUGGCUGUGGCUAGACUGCC [A6C G19C G27C] | 0.15

Row | Variant | self-cleavage
20 | GGCAGCGCUCAACACAGCGUGACAAAGUGGCUGUGGCCAGACUGCC [A6C G22A U38C] | 0.07
21 | GGCAGCGCUCAACACAGCGUGCCAAAGUAGCCGUGGCUAGUCUGCA [A6C G22C G29A U32C A41U C46A] | 0.03
22 | GGCAGCGCUCAACACAGCGUGCUAAGGGGGCUGUGGCCAGACUGGC [A6C G22C C23U A26G U28G U38C C45G] | 0.01
23 | GGCAGCGCUCAACACAGCGUUGCAAAGUGGCCGUGGCUCGACUGCC [A6C G21U U32C A39C] | 0.02
24 | GGCAGCGCUCAACACACCGUGACAAAGUGGCUGUGGCUAGACUGCC [A6C G17C G22A] | 0.53
25 | GGCAGCGCUCAACACAGCGUUGCAAAGUGGCUUUGGCUAGACUGCC [A6C G21U G33U] | 0.03
26 | GGCAGCGCUCAACACAGCGUGACAAAGUGACUGUGGCUAGAGUGCC [A6C G22A G30A C42G] | 0.03
27 | GGCAGCGCUCAACACAGCAUGGCCAAGUGGCUGUGGCUAGACGGCC [A6C G19A A24C U43G] | 0.01
28 | GGCAGCGCUCAACACAGCGUAGAAAAGUGGCUGUGGCUAUACUGCC [A6C G21A C23A G40U] | 0.16
29 | GGCAGCGCUCAACACAUCGUGGCAAAGUGGCUGUGGCUAGACUGCA [A6C G17U C46A] | 0.29
30 | GGCAGCGCUCAACACAGCGUGCCAAAGUGGCUGUGGCUUGACUGCC [A6C G22C A39U] | 0.3
31 | GGCAGCGCUCAACACAGCCUGGCAAAGUGGCUUUGGCUAGACUGCC [A6C G19C G33U] | 0.12
32 | GGCAGCGCUCAACACACCGUGGUAAAGUGGCUGUGGCUAUACUGCC [A6C G17C C23U G40U] | 0.24
33 | GGCAGCGCUCAACACAUCGUGGCAAAGUGGCUGUUACUAGAAUGCC [A6C G17U G35U G36A C42A] | 0.05
34 | GGCAGCGCUCAACACAACGUGGCAAAGUGGCUGUGCCUAGACUGCC [A6C G17A G36C] | 0.06
35 | GGCAGCGCUCAACACAGCUUGGCAAAGUGACUGUGGCUAGACUGCC [A6C G19U G30A] | 1.83
36 | GGCAGCGCUCAACACAGCGUGCCUAAGUGGCUGUGGCUAGACUGCC [A6C G22C A24U] | 0.14
37 | GGCAGCGCUCAACACAGCGUAGCAACGUGGCUGUGGCUAGACUGCA [A6C G21A A26C C46A] | 0.98
38 | GGCAGCGCUCAACACAGCUUGGCAAAGUGGCUGUGGUUAGACUGCC [A6C G19U C37U] | 0.01

Row | Variant | self-cleavage
39 | GGCAGCGCUCAACACAGCGUGGCAAACUGGCUGUGGUUAGACUGCC [A6C G27C C37U] | 0.03
40 | GGCAGCGCUCAACACAGCGUGGCAAACUGGCUGUGGAUAGACUGCC [A6C G27C C37A] | 0.05
41 | GGCAGCGCUCAACACAUCGUGGCAAAGUGGCUGUGGCCAGACUGUC [A6C G17U U38C C45U] | 0.02
42 | GGCAGCGCUCAACACAGCGUGCCAAAGUGGCUGUGGCCAGACUGCC [A6C G22C U38C] | 0.04
43 | GGCAGCGCUCAACACAGCGUUUCAAAGUGGCUGUGGCUAGACUGCC [A6C G21U G22U] | 0.77
44 | GGCAGCGCUCAACACAGCAUGGCAAAGUGGAUGUGGCUAGACCGCC [A6C G19A C31A U43C] | 0.05
45 | GGCAGCUCUCAACACAGCGUGGCAAAUUGGCUGUGCCUAGACUGCC [A6C G7U G27U G36C] | 0.03
46 | GGCAGCGCUCAACACAACGUGGCAAAUUGGCUGUGGCUAGAUUGCC [A6C G17A G27U C42U] | 0.37
47 | GGCAGCGCUCAACACAGCGUUGCAAAGUGGCUGUGGCUGGAAUGCC [A6C G21U A39G C42A] | 0.01
48 | GGCAGCGCUCAACACAGCGUGAUAAAGUGGCUGUGGCCAGACUGCC [A6C G22A C23U U38C] | 0.39
49 | GGCAGCGCUCAACACAGCAUGGCAAAGUGGCUGUGGCUAUACUGCC [A6C G19A G40U] | 0.17
50 | GGCAGCGCUCAACACAGCGUGUCAAAGUAGCUGUGGCUAGACUGCC [A6C G22U G29A] | 0.87
51 | GGCAGCGCUCAACACAACGUGGCUAAGUGGCUGUGGCUAAACUGCC [A6C G17A A24U G40A] | 0.04
52 | GGCAGCGCUCAACACAACGUGGCAAAGUGGCUGUCGCUAGACUGCC [A6C G17A G35C] | 0.05
53 | GGCAGCGCUCAACACAGCGUGCCAAAGUGGCUGUGGUUAGUCUGCC [A6C G22C C37U A41U] | 0.04
54 | GGCAGCGCUCAACACAACGUGGCAAAGUGGCUGUGGCCAGACUGCC [A6C G17A U38C] | 0.05
55 | GGCAGCGCUCAACACAGCAUGGCAAAGUGGCUGUGGUUAUACUGCC [A6C G19A C37U G40U] | 0.3
56 | GGCAGCGCUCAACACACCGUGGCAAAGUGGCUGCGGCUAGACUGAC [A6C G17C U34C C45A] | 0.06
